From the RNAGym collection of RNA variant scans (doi:10.7554/elife.90254)
Read counts are not given, so values of variants with three or more changes are uncertain.

B1: LINE1-full (parent)
chain: UACGUAGGUGGUUUUCCCCUGAUAGUGCUAAGGGGGCCUGGAAGUUUGGACUGGGCAGAGCUCAACACAGCGUGGCAAAGUGGCUGUGGCUAGACUGCCUCUCUGGAUUCCUCGUCACUCAGCAGGGCAUCUCUGAGAGAAAUGCC

Variants of: B1
Assay: self-cleavage, relative activity (ratio to wild type); higher = more cleavage; in vitro, sequencing; the parent is a self-cleaving ribozyme
With UACGUAGGUGGUAUUCCCCUGACAGUGUUAAGGGGGCCUGGAAGUUUGGACUGGGCAGAGCUCAACACAGCGUGGCAAAGUGGCUGUGGCUAGACUGCCUCUCUGGAUUCCUCGUCACUCAGCAGGGCAUCUCUGAGAGGAAUGCC the self-cleavage was 0.96. For UACGUAGGUGGUUUUCCCCUGAUAGUGCUAAGGGGGCCCGGAAGUUUGGACUGGGCAGAGCUCAACACAGCGUGGCAAAGUGGCUGUGGCUAGACUGCCCCUCUGCAUUCCUCGUCACUCAGCAGGGCAUCUCUGAGUGAAAUGCC, the self-cleavage was 2.23. Work on UACGUAGGUGGUUUUCCCCUGAUAGUGCUAAGGGGGCCUGGAAGUUUGGACUGGGCAGAGCUCGACACAGCGUGGCAAAGUGGCUGUGGCUAGACUGCCUCUCUGGAUACCUCGUCACUCAGCAGGGCAUUUCUGAGAGGAAUGCC yielded a self-cleavage of 0.32. For UACGUAGGUGGUUUUCCCCUGAUAGUGCUAAGGGGGCCUGGAAGUUUGGACUGGGCAGAGAUCAACACAGCGUGGCAAUGUGGCUGUGGUUAGACUGCCUCUCUGGAUUCCUCGUCACUCGGCAGGGCAUCUCUGAGAGAAAUGCC, the self-cleavage was 0.01. Variant UACGUAGGUGGUUUGCCCCUGAUAGUGCUAAGGGGGCCUGGGAGGUUGGACUGGGCAGAGCUCAACACAGCGUGGCAAAGUGGCUGUGGCUAGAAUGCCUCUCUGGAUUCCUCGUCACUCAGCAGGGCAUCUCUGAGAGAAAUGCC has a self-cleavage of 0.14. Variant CACGUAGGUGGUUUUCCCCUGUUAGUGCUAAGGGGGCCUGGAGGCUUGGACUGGGCAGAGCUCAACACAGCGUGGCAAAGUGGCUGUGGCUAGACUGCCUCUCUGGAUUCCUCGCCACUCAGCAGGGCAUCUCUGAGAGAAAUGCC has a self-cleavage of 0. With UACGUAGGAAGUUUUCCCCUGAUAGUGCUAAGGGGGCCUGGAAGUUUGGACUGGGCAGAGCUCAACACAGCGUGGCAAAGUGGCUGUGGCUAGACUGCCUCUCUGGAUUCCCCGUCACUCAGCAGGGCAUCUCUGAGAGAAAUGCC the self-cleavage was 1.18. CACGUAGGUGGUUUUCCCCUGAUAGUGCUAAGGGGGCCUGGUAGUUUGGACUGGGCAGAGCUCAACACAGCGUGGCAAAGUGGCUGUGGCUAGACUGCCUCUCUGGAUUCCUCGUCACUCAGCAGGGCAUCUCUGAGAGAGAUGCC gave a self-cleavage of 0.58. Work on UACGCAGGUGGUUUCCCCCUGAGAGUGCUAAGGGGGCCUGGAAGUUUGGACUGGGCAGAGCUCAACACAGCGUGGCAAAGUAGCUGUGGCUAGACUGCCUCUCUGGAUUUCUCGUCACUCAGCAGGGCAUCCCUGAGAGAAAUGCC yielded a self-cleavage of 0.73. With UACGUAGGUGGUUUACCCCUGAUAGGGCUAAGGGGGCCUGGAAGUUUGGACUGGGCAGAGUUCAACACAGCGUGGCAAAGUGGCUGUGGCUGGACUGCCUCUCUGGAUUCCUCGUCACUCAGCAGGGCAUCUCUGAGAGAAAGGCC the self-cleavage was 0.25. With UACGUAGGUGGUUUACCCCUGAAAGUGCUAAGGGGGCCUGGAAGUUUGGACUGGGCAGAGCUCAACACAGCGUGGCAAAGUGGCAGUGGCUAGACUGCCUCUCUGGAUUCCUCGUCACUCAGCAGGGCAUCUCUGAGAGAAAUGCC the self-cleavage was 0.02. In the case of AACGUAGGUGGUUUUCCCCUGAUAGUGCUAAGGGGGCCUGGAAGUUUGGACUGGGCAGAGCUCCACACAGCGUGGCAAAGUGGCUGUGGCUAGACUGCCUCUCUGGAUUCCUCGUCACUCAGCAGGGCAUCUCUGAGGGAAAUGCC, the self-cleavage is reported as 0.86. With UACGUAGGUGGUCUUCCCCUGAUAGUGCUAAGGAGGCCUGGAAGUUUGGACUGGGCAGAGCUCAACACAGCGUGGCAAAGUGGCUGUGGCUAGACUGCCUCUCUGGAUUCCUCGUCACACAGCAGGGCAUCUCUGAGAGAAAUGCC the self-cleavage was 1.81. With UACGUAGGUGGUUUACCCCUGAUAGUGCUAAGGGGGCCUGGAAGUUUGGACAGGGCAGAGCUCAACACAGCGUGGCAAAGUGGCUGUGGCUAGACUGCCUCUCUGGAUUCCUCGUCACUCAGCAGGGCAUCUCCGAGAGAAAUGCC the self-cleavage was 0.73. With UACGUAGGUGGUUCUCCCCUGAUAGUGCUUAGGGGGCCUGGAAGUUUGGACUGGGCAGAGCUCAACACAGCGUGGCAAAGUGGCUGUGGCUAGACUGCCUCUCUGGAUUCCUCGCCACUCAGCAGGGCACCUCAGAGAGAAAUGCC the self-cleavage was 0.97. Work on UACGUAGGUGGUUUUCCCCUGAUAGUGCUAAGGGGGUCUGGAAGUUUGGACUGGGCAGAGCUCAUCACAGCGUGGCAAAGUGGCUGUGGCUAGACUGCCUCUCUGGAUUCCUCGUCACUCAGCAGGGCAUCCCUGAGAGAAAUGCC yielded a self-cleavage of 0.15. With UACGUAGGUGGUUUUCCCCUGAUAGUGCUAAGGGGGCCUGGAAGUUUGGACUGGGCAGAGCUCAACGCAGCGUGGCAAGGUGGCUGUGGCUAGACUGCCUCUCUGGAUUCCUCGUCACUCAGCAGGGCAUCUCUGAGGGAAAUGCC the self-cleavage was 0.86. In the case of UACGUAGGUGGUUUUCCCCUGAUAGUGCUAAGGGCGCCUGGAAGCUUGGACUGGGCAGAGCUCAACGCAGCGUGGCAAAGUGGCUGUGGCUAGACUGCCUCUCUGGAUUCCUCGUCACUCAGCAGGGCAUCUCUGAGAGAAAUGCC, the self-cleavage is reported as 0.68. UACGUAGGUGGCUUUCCCCUGAUAGUGCUAAUGGGGCCUGGAAGUUCGGACUGGGCAGAGCUCAACACAGCGUGGCAAAGUGGCUGUGGCUAGACCGCCUCUCUGGAUUCCUCGUCACUCAGCAGGGCAUCUCUGAGAGAAAUGCC showed a self-cleavage of 0.18. UACGUAGGUGGUUUUCCCCCGAUAGUGCUAAGGGGGCCUGGAAGUUUGGACUGGGCAGAGCUCAACACAGCGUGGCAAAGUGGCUGUGGCUAGACUGCCUCUCUGGAUUCCUCGUCACUCAGCAGGGCAUCCCUGCGAGAAAUGCC gave a self-cleavage of 0.66.
